Data published in patent US20230331809A1 (Zymeworks, published 2023).

Tests used:
[1] = target: T1, cMet (tyrosine-protein kinase Met) on EBC1 cells (UniProt P08581); experiment: flow cytometry on EBC1 cells (cMet), MFI; reference sample
T1 construct: whole, on cells

[2] = target: T1, cMet (tyrosine-protein kinase Met) on …; experiment: flow cytometry on EBC1 cells (cMet), MFI
[3] = target: T1, cMet (tyrosine-protein kinase Met) on …; experiment: flow cytometry on EBC1 cells (cMet), MFI; * poor fit

T1 sequence (P08581 25-1390 limits assumed): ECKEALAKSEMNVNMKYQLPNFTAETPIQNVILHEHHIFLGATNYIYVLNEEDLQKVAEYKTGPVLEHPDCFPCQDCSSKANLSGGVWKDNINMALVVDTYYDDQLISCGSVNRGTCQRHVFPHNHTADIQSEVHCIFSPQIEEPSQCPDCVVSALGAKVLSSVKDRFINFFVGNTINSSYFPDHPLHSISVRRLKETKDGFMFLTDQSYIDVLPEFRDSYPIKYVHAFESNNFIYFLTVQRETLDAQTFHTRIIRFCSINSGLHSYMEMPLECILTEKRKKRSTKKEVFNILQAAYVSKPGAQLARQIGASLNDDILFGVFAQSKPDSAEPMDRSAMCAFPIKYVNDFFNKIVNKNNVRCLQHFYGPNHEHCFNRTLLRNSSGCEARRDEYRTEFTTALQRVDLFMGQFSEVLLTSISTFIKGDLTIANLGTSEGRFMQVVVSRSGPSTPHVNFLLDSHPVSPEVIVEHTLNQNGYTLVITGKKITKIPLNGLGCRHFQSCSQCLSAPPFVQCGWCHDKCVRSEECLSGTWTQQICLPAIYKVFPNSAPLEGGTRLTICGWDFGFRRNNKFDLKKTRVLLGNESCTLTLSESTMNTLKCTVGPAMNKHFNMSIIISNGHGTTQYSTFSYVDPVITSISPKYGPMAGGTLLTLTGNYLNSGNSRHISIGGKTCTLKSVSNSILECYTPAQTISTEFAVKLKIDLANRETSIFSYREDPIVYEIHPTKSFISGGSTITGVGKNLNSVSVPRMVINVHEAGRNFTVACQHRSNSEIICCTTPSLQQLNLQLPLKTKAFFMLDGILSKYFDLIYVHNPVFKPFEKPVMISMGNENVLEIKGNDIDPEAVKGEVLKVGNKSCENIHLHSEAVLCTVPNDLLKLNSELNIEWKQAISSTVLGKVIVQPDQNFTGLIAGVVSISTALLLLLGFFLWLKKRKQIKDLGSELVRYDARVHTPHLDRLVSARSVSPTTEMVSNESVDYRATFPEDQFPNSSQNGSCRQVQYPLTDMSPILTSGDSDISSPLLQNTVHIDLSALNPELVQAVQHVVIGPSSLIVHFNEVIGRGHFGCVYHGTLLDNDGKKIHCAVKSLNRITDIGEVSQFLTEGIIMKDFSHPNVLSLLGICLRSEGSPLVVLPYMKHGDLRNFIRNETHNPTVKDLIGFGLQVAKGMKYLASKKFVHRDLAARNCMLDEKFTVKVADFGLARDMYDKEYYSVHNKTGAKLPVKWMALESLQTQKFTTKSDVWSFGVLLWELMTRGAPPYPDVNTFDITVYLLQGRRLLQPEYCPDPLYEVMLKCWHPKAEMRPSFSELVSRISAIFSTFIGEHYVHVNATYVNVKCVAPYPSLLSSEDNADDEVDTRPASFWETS

B1: Variant 17606: Unmasked acMet mAb (antibody)
heavy: GQVQLVQSGAEVKKPGASVKVSCKASGYIFTAYTMHWVRQAPGQGLEWMGWIKPNNGLANYAQKFQGRVTMTRDTSISTAYMELSRLRSDDTAVYYCARSEITTEFDYWGQGTLVTVSSASTKGPSVFPLAPSSKSTSGGTAALGCLVKDYFPEPVTVSWNSGALTSGVHTFPAVLQSSGLYSLSSVVTVPSSSLGTQTYICNVNHKPSNTKVDKRVEPKSCDCH[human IgG1 Fc not shown]
light: GDIVMTQSPDSLAVSLGERATINCKSSESVDSYANSFLHWYQQKPGQPPKLLIYRASTRESGVPDRFSGSGSGTDFTLTISSLQAEDVAVYYCQQSKEDPLTFGGGTKVEIKRTVAAPSVFIFPPSDEQLKSGTASVVCLLNNFYPREAKVQWKVDNALQSGNSQESVTEQDSKDSTYSLSSTLTLSKADYEKHKVYACEVTHQGLSSPVTKSFNRGEC
Fold wrt WT [1]: 1 fold
EC50 [2]: 1.4 nM

B2: Variant 28647: HA PD-1:WT PD-L1 masked acMet Mab, uncleavable (antibody)
heavy: [about 120 residues not shown]AAAKEAAAKQVQLVQSGAEVKKPGASVKVSCKASGYIFTAYTMHWVRQAPGQGLEWMGWIKPNNGLANYAQKFQGRVTMTRDTSISTAYMELSRLRSDDTAVYYCARSEITTEFDYWGQGTLVTVSSASTKGPSVFPLAPSSKSTSGGTAALGCLVKDYFPEPVTVSWNSGALTSGVHTFPAVLQSSGLYSLSSVVTVPSSSLGTQTYICNVNHKPSNTKVDKRVEPKSCDCH[human IgG1 Fc not shown]
light: AFTVTVPKDLYVVEYGSNMTIECKFPVEKQLDLAALIVYWEMEDKNIIQFVHGEEDLKVQHSSYRQRARLLKDQLSLGNAALQITDVKLQDAGVYRCMISYGGADYKRITVKVNAEAAAKEAAAKDIVMTQSPDSLAVSLGERATINCKSSESVDSYANSFLHWYQQKPGQPPKLLIYRASTRESGVPDRFSGSGSGTDFTLTISSLQAEDVAVYYCQQSKEDPLTFGGGTKVEIKRTVAAPSVFIFPPSDEQLKSGTASVVCLLNNFYPREAKVQWKVDNALQSGNSQESVTEQDSKDSTYSLSSTLTLSKADYEKHKVYACEVTHQGLSSPVTKSFNRGEC
EC50 [3]: > 100 nM
Fold wrt WT [3]: > 71 fold
